{
  "source": "the supplement of paper PMC3334620",
  "note": "Whole data set: some 33,000 sequences, median “E-score (-0.5 to 0.5)” near -0.01, cut for the highest 2% near 0.26. This is one part of the list.",
  "data": [
    {"target": "Ste12 (UniProt P13574)", "assay": "PBM E-score (8-mer binding enrichment) (E-score (-0.5 to 0.5)); higher = stronger / more preferred TF binding; most listed sequences are background and not binding sites", "settings": "protein concentration: 200 nM; construct: GST-DNA-binding domain", "method": "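Universal 'all 10-mer' protein binding microarrays (Agilent AMADID 015681) probed with GST-tagged S. cerevisiae TFs (full-length or DBD) made by in vitro transcription/translation (PURExpress), about 100-200 nM. Bound TF was detected with fluorescent anti-GST. Each ungapped 8-mer (which stands for itself and its reverse complement) is scored by the PBM enrichment score (E-score), a modified Wilcoxon-Mann-Whitney statistic from -0.5 to +0.5, computed with the Universal PBM Analysis Suite. Scale: above 0.35 generally sequence-specific binding.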", "values": [
      {"sequence": "GCGCGGCC", "PBM E-score": -0.0611},
      {"sequence": "ACGCCCTG", "PBM E-score": -0.0344},
      {"sequence": "CATGCGCA", "PBM E-score": 0.0475},
      {"sequence": "AATGGGCT", "PBM E-score": -0.092},
      {"sequence": "TGGGGTAA", "PBM E-score": 0.162},
      {"sequence": "AGCGCTGC", "PBM E-score": -0.14},
      {"sequence": "CAACACAA", "PBM E-score": 0.0856},
      {"sequence": "ATAACATG", "PBM E-score": -0.0746},
      {"sequence": "ACCCAATA", "PBM E-score": 0.0206},
      {"sequence": "CCCCAAAC", "PBM E-score": 0.106},
      {"sequence": "ACTCGAAG", "PBM E-score": -0.205},
      {"sequence": "CCCTCTCA", "PBM E-score": -0.12},
      {"sequence": "CCCGAGTA", "PBM E-score": 0.0146},
      {"sequence": "TAATCCAA", "PBM E-score": 0.201},
      {"sequence": "CTTCCTAA", "PBM E-score": -0.074},
      {"sequence": "CCGCACTA", "PBM E-score": 0.0166},
      {"sequence": "CGTGGGAG", "PBM E-score": -0.158},
      {"sequence": "CCGAACCC", "PBM E-score": -0.187},
      {"sequence": "ACCCCCAT", "PBM E-score": -0.266},
      {"sequence": "ATATGTCC", "PBM E-score": 0.0629},
      {"sequence": "AAAACAGA", "PBM E-score": 0.295},
      {"sequence": "CGCTCGCA", "PBM E-score": 0.165},
      {"sequence": "CTTGATAA", "PBM E-score": -0.0163},
      {"sequence": "GTCAGCAC", "PBM E-score": -0.117},
      {"sequence": "ACTCTGTC", "PBM E-score": -0.0521},
      {"sequence": "GCCACGAA", "PBM E-score": 0.0318},
      {"sequence": "ATACTTTC", "PBM E-score": 0.125},
      {"sequence": "GGAACTAA", "PBM E-score": 0.0142},
      {"sequence": "AGCCAGAT", "PBM E-score": -0.155},
      {"sequence": "AGGCAAAA", "PBM E-score": 0.231},
      {"sequence": "ATCACAGA", "PBM E-score": -0.141},
      {"sequence": "AATTACGC", "PBM E-score": -0.00082},
      {"sequence": "CTGACGGC", "PBM E-score": -0.21},
      {"sequence": "CCAATGAG", "PBM E-score": -0.258},
      {"sequence": "AGCTGTCG", "PBM E-score": -0.23},
      {"sequence": "ACAAGTTC", "PBM E-score": -0.00961},
      {"sequence": "TATACAAA", "PBM E-score": 0.127},
      {"sequence": "GTCGACAA", "PBM E-score": 0.0095},
      {"sequence": "CCGAAGAG", "PBM E-score": -0.133},
      {"sequence": "GGGCGTGA", "PBM E-score": 0.1},
      {"sequence": "GCCGCTTA", "PBM E-score": 0.0462},
      {"sequence": "ACCGAGAG", "PBM E-score": 0.00749},
      {"sequence": "AACGGACC", "PBM E-score": -0.0639},
      {"sequence": "ACGGGAAC", "PBM E-score": -0.0807},
      {"sequence": "CTAGGCGA", "PBM E-score": 0.096},
      {"sequence": "GACTTTAC", "PBM E-score": 0.135},
      {"sequence": "ATTGTTCA", "PBM E-score": 0.0561},
      {"sequence": "AGAAGGAA", "PBM E-score": -0.00229},
      {"sequence": "ACGTGTTA", "PBM E-score": 0.0692},
      {"sequence": "AGCGTTAA", "PBM E-score": -0.0335},
      {"sequence": "AGATAGCA", "PBM E-score": 0.074},
      {"sequence": "CGATTGAA", "PBM E-score": 0.124},
      {"sequence": "AGGCCACG", "PBM E-score": -0.0929},
      {"sequence": "TAGCGCGA", "PBM E-score": 0.0839},
      {"sequence": "CTGTTTGC", "PBM E-score": -0.0149},
      {"sequence": "CTACATGA", "PBM E-score": 0.1},
      {"sequence": "CGATAGTA", "PBM E-score": 0.0487},
      {"sequence": "ACCCGCGT", "PBM E-score": -0.0297},
      {"sequence": "CATATACC", "PBM E-score": -0.111},
      {"sequence": "GTTTCGCA", "PBM E-score": 0.175},
      {"sequence": "GGGGCAGA", "PBM E-score": -0.0951},
      {"sequence": "TACTATCA", "PBM E-score": 0.13},
      {"sequence": "ACGCACCA", "PBM E-score": 0.136},
      {"sequence": "ATCAGAGA", "PBM E-score": -0.0666},
      {"sequence": "CATTCTAA", "PBM E-score": -0.123},
      {"sequence": "AATCACTC", "PBM E-score": -0.114},
      {"sequence": "CCTGCTGC", "PBM E-score": -0.0239},
      {"sequence": "ACTAAGCA", "PBM E-score": -0.207},
      {"sequence": "AGGTTTCA", "PBM E-score": 0.451},
      {"sequence": "GAAGTGTC", "PBM E-score": -0.0821},
      {"sequence": "ACTGAGTG", "PBM E-score": -0.0339},
      {"sequence": "AGATCAGA", "PBM E-score": 0.161},
      {"sequence": "CGTTCTCC", "PBM E-score": 0.0208},
      {"sequence": "ACCTAAGC", "PBM E-score": -0.00123},
      {"sequence": "CGGATACC", "PBM E-score": -0.159},
      {"sequence": "TGCCACCA", "PBM E-score": -0.0824},
      {"sequence": "ACGTTAAG", "PBM E-score": 0.0794},
      {"sequence": "ACTGATAG", "PBM E-score": 0.0508},
      {"sequence": "AGTAGGAC", "PBM E-score": -0.213},
      {"sequence": "ATCTAACG", "PBM E-score": 0.00561},
      {"sequence": "AGAAGCAC", "PBM E-score": -0.0511},
      {"sequence": "AATCTAGA", "PBM E-score": -0.13},
      {"sequence": "CGGACCGC", "PBM E-score": -0.0939},
      {"sequence": "GGTGCTCA", "PBM E-score": -0.0995},
      {"sequence": "AGAACGAA", "PBM E-score": 0.196},
      {"sequence": "CGAGCATC", "PBM E-score": -0.0956},
      {"sequence": "AGCCGTAC", "PBM E-score": -0.188},
      {"sequence": "GATAAGAA", "PBM E-score": 0.101},
      {"sequence": "TGAAGACA", "PBM E-score": -0.0625},
      {"sequence": "CGCGCCGA", "PBM E-score": 0.2},
      {"sequence": "CCCGGCCA", "PBM E-score": -0.116},
      {"sequence": "AGCCGACT", "PBM E-score": -0.139},
      {"sequence": "TCTGGGCA", "PBM E-score": -0.0341},
      {"sequence": "ACAAACAG", "PBM E-score": 0.125}
    ]}
  ]
}
